Data published in PubChem BioAssay AID1508623 (National Center for Advancing Translational Sciences (NCATS), 2021).
Out of some 48,000 compounds screened, about 450 (0.94%) were called active. Not shown: some 19% with an inconclusive outcome. The call rests on the fitted dose curve; in most records, active means well fitted inhibition curve with a large enough effect; inconclusive means small, poorly fitted or top-dose-only effect; inactive means no such curve, though single readings can be large or run the other way. Some of the results follow.

Experiment: Primary qHTS for Identification of Small Molecule Inhibitors of Huntingtin Promoter Activity; further: nearly all actives have a fitted effect of over 50% in size
Settings: HEK293 HTT promoter firefly luciferase reporter (activity 0% = vehicle and -100% = no light), 24 h; series mostly up to 57.5 µM; activity change, negative = inhibition: at the top concentration
Procedure, shortened: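 HEK293 Fluc reporter, 2,500 cells/well, 24 h pre-culture; cpds up to 57.5 uM final, 24 h 37 degrees C; Dual-Glo, 10 min RT; normalized vehicle = 0%, zero RLU = -100%.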

Activity change, negative = inhibition, inactive:
COc1ccc(CN2C(=O)C(NC(=O)c3ccc(C)cc3)(C(F)(F)F)N=C2c2ccccc2)cc1 (stereo not given) -27.6%
COc1ccccc1NC(=O)CSc1nc2c(oc3ccccc32)c(=O)n1-c1ccc(C)cc1 0.663%
COc1ccc(NS(=O)(=O)c2nnc(NC(=O)c3ccccc3F)s2)cc1 14.3%
CCOC(=O)N1CCc2c(sc3c2c(=O)n(-c2ccc(Cl)cc2)c(=O)n3CC(=O)c2ccc(F)cc2)C1 -7.73%
COc1ccc(-n2ccnc(NCCc3ccc(S(N)(=O)=O)cc3)c2=O)cc1 -31.5%
COc1cc(/C=C/c2nc(C#N)c(NC3CCCCC3)o2)cc(OC)c1OC -6.42%
Cc1ccc(CNc2nc3c(S(=O)(=O)c4ccccc4)nnn3c3ccsc23)cc1 -4.51%
CC(O)COc1ccccc1 (stereo not given) 9.32%
COc1cc(C2c3c(oc4cc(C)c(C)cc4c3=O)C(=O)N2CCCN2CCOCC2)ccc1O (stereo not given) -10.4%
CCOC(=O)c1cc(S(=O)(=O)Nc2ccc(Br)c(C)c2)[nH]n1 -16.8%
Cc1ccc2c(c1)c1c(c(=O)n(-c3cccc(Cl)c3)c(=O)n1CC(=O)N1CCCC1)n2C -10.3%
Cc1c(C(=O)N2CCC(c3nc4ccccc4s3)CC2)oc2cc(Br)ccc12 -6.4%
CCCNC(=O)c1cc2nc(-c3ccc(Br)cc3)cc(C(F)(F)F)n2n1 -11.8%
COc1ccc(Br)cc1CNC(=O)c1cc(=O)[nH]c2ccc(S(=O)(=O)N3CCCC3)cc12 -4.02%
CCOc1ccc(-n2c(SCc3nc(-c4ccc(OC)cc4)no3)nnc2-c2ccncc2)cc1 -24.5%
CCOc1cccc2cc(-c3nc4sc5c(c4c(=O)[nH]3)CCC(C(C)(C)C)C5)c(=O)oc12 (stereo not given) -4.93%
CC(C)Cc1ccc(C(C)C(=O)OCc2ccccn2)cc1 (stereo not given) -10.1%
CCOc1ccccc1NC(=O)Cn1c(=O)n(CCC(C)C)c(=O)c2cccnc21 -7.29%
O=C(COC(=O)c1cc(-c2cccs2)nc2ccccc12)c1ccc(Br)cc1 8.14%
Cc1nc2ccccc2n1CCc1nc2c3ccccc3nc(SCc3cccc(F)c3)n2n1 -20%
CC1=C(C(=O)Nc2ccccc2)C(c2ccccc2C)n2ncc(C(=O)Nc3ccccc3)c2N1 (stereo not given) -17%
Cc1ccc2c(=O)c(C(=O)c3ccccc3)cn(CC(=O)Nc3ccc4c(c3)OCCO4)c2n1 9.99%
Cn1c(=O)c2sccc2n2c(CCC(=O)NCc3ccc(F)cc3)nnc12 -2.35%
COc1ccc(CCNC(=O)CCn2c(=O)c3ccccc3n(CC(=O)Nc3ccccc3F)c2=O)cc1OC -10.5%
O=C1c2oc3ccccc3c(=O)c2C(c2ccc(Br)cc2)N1c1ccccn1 (stereo not given) -6.07%
CCCCN(CC)CCNC(=O)Cn1cnc2sc(C)c(S(=O)(=O)N3CCC(C)CC3)c2c1=O -10.9%
COC(=O)c1cnn(-c2ccc(C(=O)Nc3cccc(C(C)=O)c3)cc2)c1N -6.86%
Cc1ccc(NC(=O)Cn2nc(C)c3nn(-c4ccc(Cl)cc4)c(C)c3c2=O)cc1C -15.9%
Cn1c(=O)oc2cc(S(=O)(=O)N3CCC(C(=O)NCc4ccccc4Cl)CC3)ccc21 -14.7%
CC(=O)c1ccc(N2CCN(S(=O)(=O)c3c(C)nc4sc(C)cn4c3=O)CC2)cc1 -25.6%
Cc1cccc(OCc2cc(=O)n3c(-c4ccccc4)csc3n2)c1C 11.2%
CCCn1c(SCc2nc(-c3ccccc3C)no2)nnc1-c1ccc(Cl)cc1 -28.7%
CCc1nn(CC(=O)N2CCN(c3cccc(C)c3C)CC2)c(=O)c2cc3occc3n12 -11.5%
Cc1cccc(N2CCN(C(=O)C3CCC(CNS(=O)(=O)c4ccc(Br)s4)CC3)CC2)c1C (stereo not given) -12%
COc1ccc(N2C(=O)CSC23C(=O)N(CC(=O)NC2CCCCC2)c2ccccc23)cc1 (stereo not given) -3%
CCCCn1cc(S(=O)(=O)c2ccc(C)c(C)c2)c(=O)c2cc(F)c(N3CCN(C)CC3)cc21 7.29%
NC(=O)CSc1oc(-c2ccco2)nc1S(=O)(=O)c1ccc(Br)cc1 -19.2%
O=C(CN1C(=O)CCSc2ccc(S(=O)(=O)N3CCCC3)cc21)Nc1ccccc1 -7.94%
CCC(C(=O)Nc1ccccc1C(=O)OC)n1c(C)c2cnn(-c3ccccc3)c(=O)c2c1C (stereo not given) -12.1%
CCC(Oc1ccccc1)C(=O)Nc1ccc(O)c(-c2nc3cc(C)ccc3o2)c1 (stereo not given) 13.3%
COc1ccc(NC(=O)Cn2c(=O)n(CCCC(=O)NCc3ccccc3OC)c(=O)c3ccccc32)cc1Cl -26.6%
COc1cccc(NC(=O)CCS(=O)(=O)c2ccc3c(c2)oc(=O)n3C)c1 -13.3% [at 11.5 µM]
Cn1c(NCCCCO)nc2c1c(=O)n(Cc1ccc(Cl)cc1)c(=O)n2C -15.6%
Cc1ccc(C)c(Cn2c(C(C)NC(=O)c3ccc(F)cc3)nc3ccccc32)c1 (stereo not given) 15.1%
Cc1c2cnn(CC(=O)N3CCN(c4ccccc4)CC3)c(=O)c2c(C)n1Cc1ccc(F)cc1 -28%
CCOc1ccccc1NC(=O)CCS(=O)(=O)c1cccc2nsnc12 -6.61%
CCn1c(=O)c2sccc2n2c(CCCC(=O)N3CCN(c4ccc(OC)cc4)CC3)nnc12 -22.3%
CCc1cccc(NC(=O)c2nnn(Cc3ccc(SC)cc3)c2N)c1 3.82%
COc1ccc(N2CCN(C(=O)c3c(C)oc4ncnc(N5CCCCC5)c34)CC2)cc1 -23.4%
CCOCCCNC(=O)C(c1ccccc1)N(Cc1cccs1)C(=O)c1ccc(NC(C)=O)cc1 (stereo not given) -8.64%
Cc1cccc(N2CCN(C(=O)C3CCCN(S(=O)(=O)c4cccc5nsnc45)C3)CC2)c1C (stereo not given) 9.67%
Cc1cccc(-c2noc(CCCC(=O)NCc3ccco3)n2)c1 -26.6%
O=C(O)Cc1ccc(OCCNC[C@H](O)c2ccccc2)cc1 6.47%
COCCn1c(CCC(=O)Nc2cc(C)ccc2C)nc2cccnc21 9.91%
CC(=O)Nc1ccc(/C=N/NC(N)=S)cc1 8.53%
O=C(Nc1ccc(Br)cc1)C1CCCN(S(=O)(=O)c2ccc(Br)s2)C1 (stereo not given) -14.9%
CC(C(=O)O)c1cccc(C(=O)c2ccccc2)c1 (stereo not given)
CCOc1ccc(S(=O)(=O)N2CCN(c3cc(Cl)ccc3Cl)CC2)c2ccccc12 6.16%
CCc1ccccc1NC(=O)C(CC)Sc1ncnc2c1sc1ccccc12 (stereo not given) 5.32%
O=C(CCCCCn1c(=O)[nH]c2ccccc2c1=O)NCc1cccc(Cl)c1 14.7%
Cn1c(=O)c2c(SCC(=O)N3CCc4ccccc43)nc(-c3cccc(F)c3)nc2n(C)c1=O -10.6%
CCOc1ccccc1CNC(=O)C1CCN(S(=O)(=O)c2cccc3nonc23)CC1 1.7%
O=C(NCc1ccc(Cl)cc1)c1ccc(CSCc2cccc(Cl)c2)o1 -17.4%
Cc1ccccc1OC(=O)c1snnc1C -1.77%
CCOc1cccc2cc(-c3cn4c(n3)sc3cc(C)ccc34)c(=O)oc12 -4.88%
COc1ccc(OCc2nc3ccccc3n2C(C)c2ccccc2)cc1 (stereo not given) -8.2%
Cc1ccnc(NS(=O)(=O)c2ccc(NC(=O)C(C)(C)Oc3ccc(Cl)cc3)cc2)n1 -12.8% [at 11.5 µM]
CCOc1ccccc1NC(=O)CSc1nc2c(c(=O)[nH]1)CCC2 -10.3%
Nc1nc(Nc2cccc(C(F)(F)F)c2)sc1C(=O)c1ccccc1 7.07%
Cc1ccc(OCC(=O)Nc2cccc(OCc3cc(=O)n4ccccc4n3)c2)cc1C 38.2%
CCOc1cc(C2Nc3ccccc3-c3nnc(SCc4ccccc4)nc3O2)ccc1OC (stereo not given) -1.16%
Cc1cc(Br)ccc1NC(=O)C(Cc1ccccc1)NS(=O)(=O)c1ccc(Br)s1 (stereo not given) -29.7%
C#CCn1c(COc2ccccc2C)nc2ccccc21 7.88%
Cc1ccc(-c2noc(-c3ccc(N4CCC(C)CC4)c([N+](=O)[O-])c3)n2)cc1 1.93%
Cc1ccc(-n2cc(-c3ccccc3)c3c(NC4CCCC4)ncnc32)cc1 -17.3%
Cc1cccc(N(C)C(=O)CN2C(=O)COc3ccc(S(=O)(=O)N4CCCCCC4)cc32)c1 -18.7%
COc1cc(OC)c(OC)cc1CNCCSc1nnnn1-c1ccccc1 -17.2%
Cn1c(CNC(=O)CSc2n[nH]c(-c3ccccc3Cl)n2)nc2ccccc21 4.82%
CCN(Cc1ccccc1)C(=O)C1CCN(c2ncnc3c2nc2n3CCCCC2)CC1 -29.1%
COc1ccc(-c2cnc(C)o2)cc1S(=O)(=O)Nc1ccc(F)cc1F -10.1%
COc1cc(OC)c(NC(=O)c2cn(C3CCCC3)c(=O)c3c2c2ccccc2n3C)cc1Cl -7.35%
CN(C)CCCNC(=O)C(=O)NCC(c1ccc2c(c1)OCO2)N1CCOCC1 (stereo not given) 1.31%
Cc1nc2nc(SCC(=O)Nc3ccccc3Cl)nn2c(C)c1Cc1ccccc1 -14.5%
O=C(c1ccc(Br)cc1)N(Cc1cccs1)c1ccc(F)cc1 -26.6%
CN1CCN(C(=O)Cn2ncc3c4ccccc4n(Cc4ccc(F)cc4)c3c2=O)CC1 -8.01%
COc1cccc(C(=O)Nc2ccccc2OCc2cc(=O)n3ccccc3n2)c1 -1.13%
Cc1cccn2c(=O)c(/C=C(\C#N)c3nc4ccccc4s3)c(Oc3ccc(F)cc3)nc12 -6.15% [at 11.5 µM]
Cc1cc(N(CCO)Cc2ccccc2)n2nc(-c3ccc(C(C)(C)C)cc3)nc2n1 1.58%
COc1ccccc1CN1CCNC(=O)C1=O -3.68%
COc1ccc(N(Cc2nnc3n2CCCCC3)C(=O)Nc2cccc(C)c2)cc1Cl -3.76%
O=C(Cn1ncc2c3ccccc3n(Cc3ccccc3)c2c1=O)NC1CCCCCC1 0.818%
COc1ccccc1NC(=O)Cn1c(=O)n(-c2cccc(C)c2)c(=O)c2c1c1cc(C)ccc1n2C -18.5%
COc1ccc(NC(=O)C(CC(C)C)NC(=O)C2CCCCC2)cc1 (stereo not given) -12.6%
COc1ccc(-c2cn3c(n2)sc2cc(C(=O)NCc4cccc(F)c4)ccc23)cc1 -9.87%
Cc1ccc(NC(=O)Cn2c(=O)n(Cc3ccc4c(c3)OCO4)c(=O)c3ccccc32)cc1 -16.7%
